Source: ChEMBL document CHEMBL1201862, “PubChem BioAssay data set” (2004)
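Dose response: 5 concentrations. Exposure: 48 h. Format: 96-well plates. Endpoint: linear interpolation; highest concentration if not reached. At the GI50, growth is halved.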 Active and inactive are the calls of the source. Cut-off read from the data, not from the text of the source: active = GI50 up to about 1.1 µM and inactive = higher.

Test system: NCI-H322M
Assay: inhibition of tumour cell growth, NCI panel, 48 h

**Q.** `Cc1ccsc1C(=S)Nc1ccc(Cl)c(/C=N/OC(C)C)c1` was tested. Which GI50 did it give?
**A.** inactive: 94 µM

**Q.** `O=C(c1ccc(Cl)cc1)N(C(=O)N1CCC(c2ccccc2)CC1)c1ccccc1` was tested. Which GI50 did it give?
**A.** inactive: > 100 µM

**Q.** With `O=[N+]([O-])c1cccc2nc3ccccc3c(NCCO)c12` as the compound, how does the GI50 read?
**A.** active: 0.00541 µM

**Q.** With `COC(=O)CC1(CNC(=O)OCc2ccccc2)OCCO1` as the compound, how does the GI50 read?
**A.** inactive: > 100 µM

**Q.** For `CCOC(=O)C(O)(NC(=O)c1ccccc1F)C(F)(F)F` (centres undefined), which GI50 is on record?
**A.** inactive: > 100 µM

**Q.** For `CCOc1ccccc1NC(=O)CC1Sc2ccccc2NC1=O` (centres undefined), which GI50 is on record?
**A.** inactive: > 100 µM

**Q.** With `CN1C(=O)CC2CCCN2C1=O` (centres undefined) as the compound, how does the GI50 read?
**A.** inactive: > 100 µM

**Q.** For `N=C1N(c2ccccc2)C(=S)/C(=N/c2ccccc2)N1c1ccccc1`, which GI50 is on record?
**A.** inactive: 17.1 µM

**Q.** `CCCCSC1=N/C(=C\c2ccco2)C(Cl)=N1` was tested. Which GI50 did it give?
**A.** inactive: > 100 µM

**Q.** With `CS(=O)(=O)OC1CN2CCC1CC2` (centres undefined) as the compound, how does the GI50 read?
**A.** inactive: > 100 µM

**Q.** For `N#CC(NC12CC3CC(CC(C3)C1)C2)c1ccccc1C(F)(F)F` (centres undefined), which GI50 is on record?
**A.** inactive: > 100 µM

**Q.** How did the GI50 turn out when `N#Cc1c(O)cc(=O)n2c1[nH]c1ccccc12` was run?
**A.** inactive: > 100 µM

**Q.** With `Cc1cccc(/C=N\NC(=S)N2CCCCC2)n1` as the compound, how does the GI50 read?
**A.** active: 0.047 µM

**Q.** `O=C(O)c1cc2c(cc1CC(Cc1ccc3c(c1)CCCC3)C(=O)O)CCCC2` (centres undefined) was tested. Which GI50 did it give?
**A.** inactive: 82.6 µM

**Q.** Which GI50 does the source give for `O=C(NCC#CCO)C(F)(F)F` here?
**A.** inactive: > 100 µM

**Q.** For `CCOC1C=CCCO1` (centres undefined), which GI50 is on record?
**A.** inactive: > 100 µM

**Q.** `COc1cc(/C=C2\C(=O)N(Cc3ccccc3)C(c3ccccc3)S2(=O)=O)cc(OC)c1OC` (centres undefined) was tested. Which GI50 did it give?
**A.** inactive: > 100 µM

**Q.** For `CC(=O)Nc1ccc2nc(-c3ccccn3)c(-c3ccccn3)nc2c1`, which GI50 is on record?
**A.** inactive: > 100 µM

**Q.** How did the GI50 turn out when `CS/C(=N\C(=S)N(C)C)N(c1ccccc1)c1nc(N(C)C)s[s+]1` was run?
**A.** inactive: 12.5 µM

**Q.** Which GI50 does the source give for `O=C1NCCCNCCCNCCCNC(=O)c2cccc1n2` here?
**A.** inactive: > 100 µM

**Q.** Which GI50 does the source give for `Cc1nc(-c2nc([N+](=O)[O-])c([N+](=O)[O-])[nH]2)cs1` here?
**A.** inactive: > 100 µM

**Q.** How did the GI50 turn out when `COC1=C(C(c2cc(OC)c(OC)c(OC)c2)c2cc3c(cc2OC)OCO3)C(=O)OC1` (centres undefined) was run?
**A.** inactive: > 55.1 µM

**Q.** With `CCC(=O)C(c1ccccc1)c1ccccn1` (centres undefined) as the compound, how does the GI50 read?
**A.** inactive: > 100 µM

**Q.** With `CN1C(=O)C(O)CC1c1cccc(C(F)(F)F)c1` (centres undefined) as the compound, how does the GI50 read?
**A.** inactive: > 100 µM

**Q.** How did the GI50 turn out when `COc1ccc2c(c1)c1c(n2CCN2CCCCC2)-c2ccccc2CC1` was run?
**A.** inactive: 20 µM

**Q.** With `COc1ccc(OC)c(C2CCc3nc4nc(N)nc(N)c4cc3C2)c1` (centres undefined) as the compound, how does the GI50 read?
**A.** inactive: 2.39 µM

**Q.** For `C/C(=N\NC(=S)N1CCCCCC1)c1nccnc1C`, which GI50 is on record?
**A.** active: 0.0124 µM

**Q.** For `O=c1[nH]c2cc(C(F)(F)F)ccc2nc1C(F)(F)F`, which GI50 is on record?
**A.** inactive: 25.9 µM

**Q.** With `Cc1cn(C(CO)OC(CO)CN(O)C2C3CC4CC(C3)CC2C4)c(=O)[nH]c1=O` (centres undefined) as the compound, how does the GI50 read?
**A.** inactive: > 100 µM

**Q.** For `CSCCCNC(=O)c1csc(-c2csc(C(CNC(=O)OC(C)(C)C)CNC(=O)OC(C)(C)C)n2)n1`, which GI50 is on record?
**A.** inactive: 62.7 µM

**Q.** For `N#C/N=N/c1cc(Cl)c(/N=N/C#N)cc1Cl`, which GI50 is on record?
**A.** inactive: > 100 µM

**Q.** For `CCCCCOc1ccc(NC2=C(Cl)C(=O)c3c(O)ccc(O)c3C2=O)cc1`, which GI50 is on record?
**A.** inactive: 3.11 µM

**Q.** `O=CC1C(Cl)=Nc2nc3ccccc3n2C1c1ccc([N+](=O)[O-])cc1` (centres undefined) was tested. Which GI50 did it give?
**A.** inactive: 21 µM

**Q.** For `Cc1ncc2c(=O)c3c(oc2n1)c1ccccc1n3Cc1ccccc1`, which GI50 is on record?
**A.** inactive: > 100 µM

**Q.** With `C[n+]1c2ccccc2n2c3ccccc3c(NCc3ccco3)c(C#N)c21` as the compound, how does the GI50 read?
**A.** inactive: 2.49 µM

**Q.** How did the GI50 turn out when `COc1ccc(C(=O)Cn2c(C(=O)/C=C/c3ccco3)nc3ccccc32)cc1` was run?
**A.** inactive: 44.4 µM

**Q.** Which GI50 does the source give for `CC1=C2NCN(C)N=C2C(C#N)(C#N)C1(C#N)C#N` here?
**A.** inactive: > 100 µM

**Q.** `CCOC(=O)C1c2[nH]c3ccccc3c2CCN1C(=O)c1ccc(OC)o1` (centres undefined) was tested. Which GI50 did it give?
**A.** inactive: > 10 µM

**Q.** `CC(=O)O[C@H]1C(=O)[C@@]2(C)[C@H]([C@H](OC(=O)c3cccc([N+](=O)[O-])c3)[C@]3(O)C[C@H](OC(=O)[C@H](O)[C@@H](NC(=O)c4ccccc4)c4ccccc4)C(C)=C1C3(C)C)[C@]1(OC(C)=O)CO[C@@H]1C[C@@H]2O` was tested. Which GI50 did it give?
**A.** active: 0.125 µM
